Measurements reported in PubChem BioAssay AID602332 (National Center for Advancing Translational Sciences (NCATS), 2012).
Hit rate of the full screen: of about 420,000 compounds, about 75 (0.02%) were called active. The shares of active, inactive and inconclusive entries below differ from those in the screen. The call rests on the fitted dose curve; in most records, active means well fitted activation curve with a large enough effect; inconclusive means small, poorly fitted or top-dose-only effect; inactive means no such curve, though single readings can be large or run the other way. Where the call is inconclusive, the potency comes from a doubtful curve fit.

experiment: qHTS for Inducers of the Endoplasmic Reticulum Stress Response (ERSR) in Human Glioma: qHTS; settings: U87-MG GRP78 promoter luciferase reporter, 16 h; activation: active compounds read high; further: nearly all actives have a fitted effect of over 35% in size; on activation: % of control where 0% means no effect
Procedure, shortened: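 Stably transfected U87-MG glioma cells carrying a GRP78-based luciferase sensor; 16 h compound incubation. Luminescence end-point read 10 min after Bright-Glo addition at room temperature.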
Potency means the concentration at half of the fitted maximal effect; tags describe the fitted curve by direction and shape.

Row | SMILES | Potency | activation
1 | CCOc1cc(CNc2ccc(O)cc2)cc(Cl)c1OCc1ccccc1 | active: 12.6 µM | –
2 | CCOC(=O)/C(=C/c1c(C)n(C)c2ccc([N+](=O)[O-])cc12)C(C)=O | inconclusive: 12.6 µM [activator, single point] | –
3 | Cc1ccc(NC(=O)C2CCCN2S(=O)(=O)c2cccc3cccnc23)c(C)c1 (stereo unspecified) | inconclusive: 12.6 µM [activator, single point] | –
4 | COC(=O)CCc1c(C)c(C(=O)c2cc(OC)c(OC)c(OC)c2)c2ccccn12 | inconclusive: 50.1 µM [activator, single point] | –
5 | O=C(C[C@H]1C[C@H](C(=O)N2CCCCC2)[C@@]2(CCc3ccccc3)c3[nH]c4ccc(Cl)cc4c3CCN2C1=O)NCCc1ccccn1 | – | inactive: 0.664%
6 | CC(=O)Nc1cc(-c2ccccc2)cn2c(-c3cccc(C(C)=O)c3)cnc12 | inconclusive: 44.7 µM [activator, single point] | –
7 | O=C(NCc1ccccn1)C1CCCN(S(=O)(=O)c2cc(Cl)ccc2Cl)C1 (stereo unspecified) | inconclusive: 11.2 µM [activator, partial curve, poor fit] | –
8 | Cc1cccc(-n2ncc3c(Nc4ccc(F)cc4)ncnc32)c1 | – | inactive: -0.406%
9 | CC(C)c1ccc(/C=C/C(=O)n2nnc3ccccc32)cc1 | inconclusive: 44.7 µM [activator, single point] | –
10 | COC(=O)C(CCSC)NC(=O)C1CCN(c2ncnc3c2nc2n3CCCCC2)CC1 (stereo unspecified) | inconclusive: 44.7 µM [activator, partial curve, poor fit] | –
11 | CCCCN(C(=O)c1ccc(-c2ccc([N+](=O)[O-])cc2)o1)c1c(N)n(CCCC)c(=O)[nH]c1=O | inconclusive: 50.1 µM [activator, single point] | –
12 | CCCOc1ccc(C(O)C(CN2CCOCC2)c2ccccc2)cc1 (stereo unspecified) | – | inactive: -8.92%
13 | Cc1ccc(-c2csc3nc(C)n(N)c(=O)c23)o1 | inconclusive: 17.8 µM [activator, single point] | –
14 | O=C1c2ccccc2C(=O)N1CSc1nnc(Nc2ccccc2)s1 | – | inactive: 0.0479%
15 | O=c1nc(/C=C/c2ccc(O)c(O)c2)oc2ccccc12 | inconclusive: 35.5 µM [activator, full curve, poor fit] | –
16 | Cc1ccc(O)c(NC(=O)c2noc3c2CCc2ccccc2-3)c1 | inconclusive: 6.31 µM [activator, partial curve, poor fit] | –
17 | CC(C)Sc1nc(N)c2c3c(sc2n1)CN(C)CC3 | inconclusive: 50.1 µM [activator, single point] | –
18 | CCCC(C1=C(O)CC(C)(C)CC1=O)C1C(=O)CC(C)(C)CC1=O (stereo unspecified) | – | inactive: -4.37%
19 | CC(C)C[C@H](NC(=O)c1[nH]cnc1C(=O)N[C@@H](C)C(=O)OCc1ccccc1)C(=O)OCc1ccccc1 | inconclusive: 44.7 µM [activator, partial curve, poor fit] | –
20 | COc1ccc(/C=C\C(=O)c2c(O)ccc3c(C)cc(=O)oc23)cc1 | inconclusive: 63.1 µM [activator, single point] | –
21 | CC(=O)Nc1cc(-c2ccccc2N(C)C)cn2c(-c3cccc(C(F)(F)F)c3)cnc12 | inconclusive: 28.2 µM [activator, single point] | –

Row | SMILES | Potency | activation
22 | O=c1ccc2cc(S(=O)(=O)N3CCCC3)ccc2[nH]1 | – | inactive: -3.66%
23 | COC(=O)c1c(NC(NC(=O)C(C)C)C(Cl)(Cl)Cl)sc2c1CCC2 (stereo unspecified) | – | inactive: -3.93%
24 | O=C(O)c1ccccc1-c1ccccc1C(=O)Nc1cccc(-c2nc3ccccc3o2)c1 | inconclusive: 44.7 µM [activator, partial curve, poor fit] | –
25 | CCOC(=O)CSc1nnc(-c2cc(OC)c(OC)c(OC)c2)o1 | inconclusive: 12.6 µM [activator, partial curve, poor fit] | –
26 | CCc1nc2ccc(C(=O)NCCc3ccc(OC)cc3OC)cc2nc1CC | – | inactive: 1.48%
27 | CC#CCCCC(=O)Nc1ccccc1C(=O)O | inconclusive: 15.8 µM [activator, single point] | –
28 | COc1ccccc1NC(=O)CSC(N)=O | inconclusive: 22.4 µM [activator, full curve, poor fit] | –
29 | Cc1ccc(-n2c(SCC(=O)O)nc3c(sc(=S)n3-c3ccc(C)c(C)c3)c2=O)cc1 | inconclusive: 50.1 µM [activator, single point] | –
30 | COc1cccc(-c2ccc(C#N)c(OC(=O)c3c(Cl)cccc3Cl)n2)c1 | inconclusive: 15.8 µM [activator, full curve, poor fit] | –
31 | CCN(CC)CCN(C(=O)CCS(=O)(=O)c1ccccc1)c1nc2cc(C)cc(C)c2s1 | – | inactive: -10.7%
32 | Cc1nnnn1/C(=C\c1ccccc1)C(=O)OCC(=O)N1CC2(C)CC1CC(C)(C)C2 (stereo unspecified) | inconclusive: 28.2 µM [activator, single point] | –
33 | Cc1ccc(-n2c(C)nnc2SCC(=O)N2CCc3ccccc3C2)cc1 | inconclusive: 28.2 µM [activator, single point] | –
34 | CC1=C(C(=O)O)N2C(=O)C(NC(=O)c3ccn(C)n3)C2SC1 (stereo unspecified) | – | inactive: -1.95%
35 | Cc1cccc(NC(=O)C2CCN(c3nccc(C)n3)CC2)c1 | – | inactive: -3.23%
36 | COc1ccc(-c2nnc(SC(=O)N3c4ccccc4Sc4ccccc43)o2)cc1 | inconclusive: 22.4 µM [activator, single point] | –
37 | COc1cccc(N2C(=O)CC(N3CCN(CCN=CC4=C(O)CC(C)(C)CC4=O)CC3)C2=O)c1 (stereo unspecified) | – | inactive: -4.84%
38 | Cc1c(C#N)c(NC(=O)CCl)n(Cc2ccc(F)cc2)c1C | inconclusive: 17.8 µM [activator, single point] | –
39 | O=C(COc1ccc(Cl)cc1)NC1=NN(c2ccccc2)C(=O)C1 | inconclusive: 15.8 µM [activator, partial curve] | –
40 | Cc1cc(NC(=O)c2ccccc2Cl)n(C(C)(C)C)n1 | – | inactive: -1.77%
41 | COc1ncc2nc(CCc3ccccc3)c(=O)n(Cc3cccs3)c2n1 | – | inactive: -0.311%
